# Experimental data published in PubChem BioAssay (Tox21).
# This list was built around the results that the source calls inconclusive (neither active nor inactive); the mix of calls is not that of the screen. For part of these data: Potencies of inconclusive entries are left out as doubtful fits. A structure can be active in one record and inactive in another. Activity calls are given as the source filed them. Unless noted, the call rests on the fitted dose curve; in most records, active means well fitted curve in the direction sought with a large enough effect in the repeat runs; inconclusive means weak or mixed curves; inactive means no such curve, though single readings can be large; an effect the other way counts as inactive or inconclusive.
# Experiments:
# [1] = A CellTox Green Cytotoxicity Assay to monitor cytotoxicity in HepG2 cells - 8 hour (AID 1224890); further: nearly all actives have a fitted effect of over 45% in size; further: potency means the concentration at half of the fitted maximal effect
# Summary of the method: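 Continuous culture of HepG2 cells with a membrane-impermeant DNA dye; rising fluorescence marks dead cells. Compound exposure lasted up to 40 h at 37 C, with reads every 8 h from 0 h.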
# [2] = qHTS assay to identify small molecule antagonists of the sonic hedgehog signaling (Shh) pathway (AID 1259369; calls by dose curve; further: nearly all actives have a fitted effect of over 45% in size; further: potency means the concentration at half of the fitted maximal effect)
# Summary of the method: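 Screening used 3T3Gli1-Luc cells at 2,000 per well, compounds delivered in DMSO, and conditioned medium as agonist stimulus; plates incubated 24hr at 37 C and 5% CO2 before a 30min luciferase step.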
# [3] = target: Estrogen receptor beta (Homo sapiens) (UniProt Q92731); assay: qHTS assay to identify small molecule agonists of the estrogen receptor beta (ER-beta) signaling pathway (AID 1259377; active means well fitted activation curve with a large enough effect in the signal ratio in the repeat runs, not every such curve was filed as active; inconclusive means weak or mixed curves, or effect the other way; the % refers to the signal ratio; further: potency means the concentration at half of the fitted maximal effect); conditions: ER-beta-UAS-bla HEK293T, beta-lactamase FRET ratio, 16 h; series mostly up to 92.4 µM
# Summary of the method: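 Read-out: beta-lactamase FRET fluorescence. Cell line: ER-beta-UAS-bla HEK293T in 2% charcoal-stripped FBS. Exposure: 16 hr at 37C. Substrate step: 2 h at room temperature.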
# [4] = qHTS RealTime-Glo MT Cell Viability Assay in HepG2 cells - 0 hour (AID 1224889); further: potency means the concentration at half of the fitted maximal effect; nearly all actives have a fitted effect of over 50% in size
# Summary of the method: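 HepG2 cells were seeded at 600 cells/well together with NanoLuc luciferase and a cell-permeant prosubstrate, preincubated 5 h at 37 C/5% CO2, then pin-dosed with compounds in DMSO. Nonlytic luminescence from viable cells was read at each time point.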
# [5] = target: Estrogen receptor beta (Homo sapiens) (UniProt Q92731); assay: qHTS assay to identify small molecule antagonists of the estrogen receptor beta (ER-beta) signaling pathway (AID 1259378; active means well fitted inhibition curve with a large enough effect in the signal ratio in the repeat runs, not every such curve was filed as active; inconclusive means weak or mixed curves, or effect the other way; inactive means no such curve, though single readings can be large or run the other way; the % refers to the signal ratio; further: potency means the concentration at half of the fitted maximal effect); conditions: ER-beta-UAS-bla HEK293T, beta-lactamase FRET ratio, 16 h; series mostly up to 92.4 µM
# Summary of the method: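 Antagonist mode: compounds added to beta-lactamase reporter HEK293T ER-beta-UAS cells stimulated with E2 (1nM final), 16 hr at 37C. LiveBLAzer B/G FRET substrate, 2 hours room temperature, fluorescence read-out.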
# [6] = target: Androgen receptor (Homo sapiens) (UniProt P10275); assay: qHTS assay to identify small molecule antagonists of the androgen receptor (AR) signaling pathway using the MDA cell line in the presence of 0.5 nM R1881 (AID 1259243); further: nearly all actives have a fitted effect of over 50% in size; further: potency means the concentration at half of the fitted maximal effect
# Summary of the method: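 Inhibition of R1881 (0.5 nM final) induced reporter signal was measured in human MDA-kb2 cells; note the MMTV promoter also responds to GR. Exposure lasted 16 hr at 37C.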
# [7] = target: Estrogen receptor (Homo sapiens) (UniProt P03372); assay: qHTS assay to identify small molecule antagonists of the estrogen receptor alpha (ER-alpha) signaling pathway using the BG1 cell line in the presence of 0.1 nM 17-beta-estradiol (AID 1259244); further: nearly all actives have a fitted effect of over 50% in size; further: potency means the concentration at half of the fitted maximal effect
# Summary of the method: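 Quantitative high-throughput screen in VM7Luc4E2 cells: compound plus 0.1 nM E2 (final), 22 h, 37C, 5% CO2; ONE-Glo added, 30 min room temperature, luminescence measured.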
# [8] = qHTS assay to identify small molecule antagonists of the estrogen receptor alpha (ER-alpha) signaling pathway using the BG1 cell line in the presence of 0.1 nM 17-beta-estradiol - cell viability counter screen (AID 1259241); further: potency means the concentration at half of the fitted maximal effect; nearly all actives have a fitted effect of over 40% in size
# Summary of the method: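 Estradiol-stimulated (0.1 nM) VM7Luc4E2 cells exposed to compounds 22 hr; viability measured by fluorescence of cleaved CellTiter-Fluor substrate after 30 min.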
# [9] = qHTS assay to identify small molecule agonists of the sonic hedgehog signaling (Shh) pathway - cell viability counter screen (AID 1259366); further: potency means the concentration at half of the fitted maximal effect; nearly all actives have a fitted effect of over 50% in size
# Summary of the method: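 Same-well cytotoxicity read. Gli1-Luc reporter 3T3 cells; compounds 24hr, 37C/5% CO2; CellTiter-Fluor fluorescence.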
# [10] = qHTS assay to identify small molecule agonists of the androgen receptor (AR) signaling pathway in the presence of an antagonist - cell viability counter screen (AID 1259379); further: potency means the concentration at half of the fitted maximal effect; nearly all actives have a fitted effect of over 25% in size
# Summary of the method: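 In MDA-kb2 cells (human breast carcinoma, MMTV-luciferase), compounds at 15 concentrations plus 3.0uM nilutamide; 16 hr, 37C, 0% CO2; CellTiter-Fluor fluorescence read for viability.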
# [11] = qHTS assay to identify small molecule HDAC inhibitors - cell viability counter screen (AID 1259365); further: nearly all actives have a fitted effect of over 50% in size
# Summary of the method: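 After overnight seeding at 1,500 cells per well, wild-type HCT-116 cultures took up compounds in DMSO for 2hr at 37 C. Viable cell content came from luminescence with CellTiter-Glo.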
# Tags describe the fitted curve by direction and shape or compound fluorescence and quenching.
# UniProt Q92731, sequence (Q92731 whole entry, looked up): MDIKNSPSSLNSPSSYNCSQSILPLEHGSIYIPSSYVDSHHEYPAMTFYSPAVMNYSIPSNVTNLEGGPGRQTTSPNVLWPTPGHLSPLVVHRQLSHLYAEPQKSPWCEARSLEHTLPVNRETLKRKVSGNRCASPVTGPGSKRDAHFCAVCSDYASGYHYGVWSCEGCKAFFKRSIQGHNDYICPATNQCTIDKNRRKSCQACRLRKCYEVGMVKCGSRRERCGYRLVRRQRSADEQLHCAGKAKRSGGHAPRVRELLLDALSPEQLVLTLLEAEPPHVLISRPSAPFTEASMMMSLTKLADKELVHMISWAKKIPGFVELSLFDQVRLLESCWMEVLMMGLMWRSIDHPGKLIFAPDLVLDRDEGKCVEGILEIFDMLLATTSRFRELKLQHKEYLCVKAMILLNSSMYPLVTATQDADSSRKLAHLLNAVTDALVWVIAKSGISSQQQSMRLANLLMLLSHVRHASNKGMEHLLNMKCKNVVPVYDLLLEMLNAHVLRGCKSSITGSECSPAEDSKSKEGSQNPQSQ
# UniProt P10275, sequence (P10275 whole entry, looked up): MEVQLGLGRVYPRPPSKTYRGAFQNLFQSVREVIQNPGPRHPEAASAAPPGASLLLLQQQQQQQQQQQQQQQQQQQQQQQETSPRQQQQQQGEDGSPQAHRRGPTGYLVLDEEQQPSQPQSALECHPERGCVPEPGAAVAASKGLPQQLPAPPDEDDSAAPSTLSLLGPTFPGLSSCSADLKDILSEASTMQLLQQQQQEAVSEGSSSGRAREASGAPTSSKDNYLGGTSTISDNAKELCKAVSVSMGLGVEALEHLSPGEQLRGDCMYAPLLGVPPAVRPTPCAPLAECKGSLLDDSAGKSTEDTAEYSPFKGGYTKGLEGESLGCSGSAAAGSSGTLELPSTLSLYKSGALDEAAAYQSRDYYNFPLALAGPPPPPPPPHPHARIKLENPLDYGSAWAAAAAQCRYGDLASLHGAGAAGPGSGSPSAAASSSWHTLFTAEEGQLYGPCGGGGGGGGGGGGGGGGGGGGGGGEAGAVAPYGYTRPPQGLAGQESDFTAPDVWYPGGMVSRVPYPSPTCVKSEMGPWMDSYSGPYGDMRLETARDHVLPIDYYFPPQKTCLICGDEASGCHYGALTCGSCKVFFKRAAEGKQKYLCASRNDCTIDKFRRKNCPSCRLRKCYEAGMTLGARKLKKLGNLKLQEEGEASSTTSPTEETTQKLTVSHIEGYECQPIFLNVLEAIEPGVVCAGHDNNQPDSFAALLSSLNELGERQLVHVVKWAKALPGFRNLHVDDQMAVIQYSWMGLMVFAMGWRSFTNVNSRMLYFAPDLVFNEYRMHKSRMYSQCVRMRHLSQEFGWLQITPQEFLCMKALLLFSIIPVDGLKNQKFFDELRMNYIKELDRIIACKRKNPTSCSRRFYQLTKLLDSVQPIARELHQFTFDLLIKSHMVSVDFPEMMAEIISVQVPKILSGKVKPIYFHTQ
# UniProt P03372, sequence (P03372 whole entry, looked up): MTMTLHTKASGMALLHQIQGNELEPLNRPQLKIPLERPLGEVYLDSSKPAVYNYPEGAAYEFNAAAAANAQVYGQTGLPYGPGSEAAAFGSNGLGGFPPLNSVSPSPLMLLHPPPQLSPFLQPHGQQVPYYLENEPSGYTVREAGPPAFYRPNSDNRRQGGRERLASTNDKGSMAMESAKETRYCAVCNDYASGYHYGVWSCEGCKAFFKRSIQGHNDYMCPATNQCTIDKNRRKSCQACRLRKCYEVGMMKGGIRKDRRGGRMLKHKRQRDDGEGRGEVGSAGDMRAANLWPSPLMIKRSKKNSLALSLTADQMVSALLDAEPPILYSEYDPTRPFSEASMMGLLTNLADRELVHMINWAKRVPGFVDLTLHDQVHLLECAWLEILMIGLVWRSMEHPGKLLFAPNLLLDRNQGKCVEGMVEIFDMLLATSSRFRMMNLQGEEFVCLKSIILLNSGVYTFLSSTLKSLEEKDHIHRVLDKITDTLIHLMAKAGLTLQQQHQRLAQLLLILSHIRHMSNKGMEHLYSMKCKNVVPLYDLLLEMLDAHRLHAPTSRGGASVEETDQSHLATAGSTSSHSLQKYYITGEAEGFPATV
smiles,measurement,setting,value
CCCCC(CC)COC(=O)Cl (stereo not given),Potency,[1],active: 38.9 µM
same,Potency,[2],inactive
same,Potency,[3],inconclusive [activator]
CCOC(=O)c1cn2nc(OP(=S)(OCC)OCC)cc2nc1C,Potency,[4],"inconclusive [cytotoxic, partial curve]"
same,Potency,[2],"inconclusive [inhibitor, full curve]"
same,Potency,[3],inactive
same,Potency,[5],"inconclusive [inhibitor, single point]"
Cc1ccc(OP(=O)(Oc2ccccc2)Oc2ccccc2)cc1,Potency,[6],"inconclusive [inhibitor, partial curve, poor fit]"
same,Potency,[7],inactive
same,Potency,[2],active: 17.5 µM
same,Potency,[3],"inconclusive [rising, full curve]"
same,Potency,[5],active: 24.7 µM
c1ccc2cc3c(cc2c1)-c1cccc2cccc-3c12,Potency,[8],"inconclusive [rising, partial curve]"
same,Potency,[7],"inconclusive [inhibitor, full curve]"
same,Potency,[9],"inconclusive [rising, full curve]"
same,Potency,[3],"inconclusive [fluorescent, full curve]"
same,Potency,[5],"inconclusive [fluorescent, full curve]"
same,Potency,[10],inconclusive
c1ccc(P(c2ccccc2)c2ccccc2)cc1,Potency,[1],"inconclusive [activator, single point]"
same,Potency,[5],"inconclusive [inhibitor, partial curve] and inactive"
CCC(C)(C#N)N=NC(C)(C#N)CC (stereo not given),Potency,[6],"inconclusive [inhibitor, single point]"
same,Potency,[5],inactive
C=C(Cl)CSC(=S)N(CC)CC,Potency,[8],"inconclusive [cytotoxic, partial curve, poor fit]"
same,Potency,[2],"inconclusive [inhibitor, full curve]"
CC1(C)[C@H](C(=O)O[C@H](C#N)c2cccc(Oc3ccccc3)c2)[C@@H]1C=C(Br)Br,Potency,[6],"inconclusive [inhibitor, partial curve]"
CC1(C)CON(Cc2ccccc2Cl)C1=O,Potency,[1],inactive
same,Potency,[2],"inconclusive [inhibitor, single point]"
CCCCCCCCOC(=O)c1ccccc1C(=O)OCCCCCCCC,Potency,[6],inactive
same,Potency,[11],inactive
same,Potency,[2],"inconclusive [inhibitor, single point]"
